{"source": "paper PMC4336329", "about": "(PLoS ONE, 2015)", "note": "Out of some 310,000 compounds screened, about 14,000 (4.5%) showed an effect of 50% or more. The effect is printed as a negative number. Some of the results follow.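 Further: peak tail current of the secondary pulse compared with the same well before compound.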", "data": [{"molecular_target": "human ether-à-go-go-related gene (hERG) potassium channel (human, UniProt Q12809)", "sequence (Q12809 whole entry, looked up)": "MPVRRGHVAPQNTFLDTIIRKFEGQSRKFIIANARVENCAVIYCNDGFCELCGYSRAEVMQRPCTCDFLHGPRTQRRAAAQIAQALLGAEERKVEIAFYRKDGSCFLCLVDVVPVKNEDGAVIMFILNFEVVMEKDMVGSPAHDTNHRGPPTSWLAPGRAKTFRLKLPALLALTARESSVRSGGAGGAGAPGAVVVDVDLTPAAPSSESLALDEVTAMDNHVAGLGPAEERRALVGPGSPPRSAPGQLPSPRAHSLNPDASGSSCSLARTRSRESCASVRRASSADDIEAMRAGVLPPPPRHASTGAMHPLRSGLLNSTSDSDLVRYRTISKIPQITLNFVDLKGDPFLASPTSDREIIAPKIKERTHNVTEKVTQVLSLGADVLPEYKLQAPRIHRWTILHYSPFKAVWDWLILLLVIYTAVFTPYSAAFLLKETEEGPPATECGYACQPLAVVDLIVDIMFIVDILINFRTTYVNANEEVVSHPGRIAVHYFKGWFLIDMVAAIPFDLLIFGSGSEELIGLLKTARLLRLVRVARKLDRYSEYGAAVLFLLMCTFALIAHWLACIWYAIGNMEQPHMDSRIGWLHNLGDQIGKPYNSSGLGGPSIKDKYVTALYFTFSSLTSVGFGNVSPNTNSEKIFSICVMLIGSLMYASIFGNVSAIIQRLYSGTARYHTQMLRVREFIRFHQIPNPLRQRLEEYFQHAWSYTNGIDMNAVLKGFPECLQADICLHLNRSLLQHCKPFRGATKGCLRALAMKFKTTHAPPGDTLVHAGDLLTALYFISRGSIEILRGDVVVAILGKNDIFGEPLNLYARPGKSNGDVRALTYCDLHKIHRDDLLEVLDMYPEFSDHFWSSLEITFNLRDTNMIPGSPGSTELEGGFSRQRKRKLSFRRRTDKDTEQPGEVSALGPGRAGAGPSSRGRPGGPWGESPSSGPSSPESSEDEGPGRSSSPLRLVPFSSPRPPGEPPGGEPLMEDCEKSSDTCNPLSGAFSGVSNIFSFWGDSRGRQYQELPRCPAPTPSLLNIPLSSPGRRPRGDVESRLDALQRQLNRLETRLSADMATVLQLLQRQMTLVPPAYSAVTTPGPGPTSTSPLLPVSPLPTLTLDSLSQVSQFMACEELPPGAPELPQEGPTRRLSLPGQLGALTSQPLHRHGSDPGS", "assay": "primary screen, population patch clamp on CHO cells stably expressing hERG", "units": {"hERG current change (%, negative = inhibition) at 10uM": "%"}, "values": [{"smiles": "COc1ccc(CNC(=O)Cn2cc3c(n2)CCCCC3)cc1", "hERG current change (%, negative = inhibition) at 10uM": 3.36}, {"smiles": "O=C(CSc1nnc(-c2ccncc2)o1)Nc1cccc(F)c1", "hERG current change (%, negative = inhibition) at 10uM": -10.6}, {"smiles": "COc1ccc(Cc2noc(-c3ccc(OC)c(OC)c3)n2)cc1OC", "hERG current change (%, negative = inhibition) at 10uM": -38.6}, {"smiles": "O=C(NC(=S)Nc1cccc2cccnc12)c1ccccc1", "hERG current change (%, negative = inhibition) at 10uM": 19.6}, {"smiles": "CCN(CC)S(=O)(=O)c1ccc(-c2nnc(SCC(=O)Nc3nnc(C)s3)n2CC)cc1", "hERG current change (%, negative = inhibition) at 10uM": 12.2}, {"smiles": "COc1ccc(Cl)cc1NC(=S)N1CCN(C(=O)c2ccco2)CC1", "hERG current change (%, negative = inhibition) at 10uM": -4.94}, {"smiles": "O=C(NCC(c1ccco1)N1CCOCC1)c1ccc(F)c(F)c1", "note": "(stereo not drawn)", "hERG current change (%, negative = inhibition) at 10uM": 0.222}, {"smiles": "COc1ccc(C(c2nnnn2Cc2cccs2)N2CCN(c3ccccc3F)CC2)cc1OC.Cl", "note": "(stereo not drawn)", "hERG current change (%, negative = inhibition) at 10uM": -39.6}, {"smiles": "COc1ccccc1N1CCN(c2ccnc3cc(Cl)ccc23)CC1", "hERG current change (%, negative = inhibition) at 10uM": -43.4}, {"smiles": "COc1ccc(-c2[nH]ncc2CNC(C)c2cn(C)nc2C)c(F)c1", "note": "(stereo not drawn)", "hERG current change (%, negative = inhibition) at 10uM": 1.73}, {"smiles": "O=C1c2ccccc2C(=O)C1c1ccc(Cl)cc1", "hERG current change (%, negative = inhibition) at 10uM": 8.89}, {"smiles": "CCC(=O)Nc1ccc(N2CCN(CC)CC2)c(Cl)c1", "hERG current change (%, negative = inhibition) at 10uM": -3.56}, {"smiles": "COc1ccc(CC(=O)NNC(=O)c2ccc(NC(C)=O)cc2)cc1", "hERG current change (%, negative = inhibition) at 10uM": 19}, {"smiles": "COc1ccc(C2SCCN2S(=O)(=O)c2ccc(NC(C)=O)cc2)cc1OC", "note": "(stereo not drawn)", "hERG current change (%, negative = inhibition) at 10uM": -11.7}, {"smiles": "O=C(c1ccc(Cl)cc1)c1ccc(CN2C(=O)c3ccccc3C2=O)o1", "hERG current change (%, negative = inhibition) at 10uM": 1}, {"smiles": "O=C(Nc1ccc(C(=O)O)cc1)/C(=C\\c1ccco1)NC(=O)c1ccccc1", "hERG current change (%, negative = inhibition) at 10uM": 21.2}, {"smiles": "CCOc1ccc(S(=O)(=O)N(CC(=O)N/N=C/c2cccs2)c2ccc(C)cc2)cc1", "hERG current change (%, negative = inhibition) at 10uM": -9.47}, {"smiles": "Cn1c(=O)c2ncn(CC(=O)N/N=C/c3ccco3)c2n(C)c1=O", "hERG current change (%, negative = inhibition) at 10uM": -1.93}, {"smiles": "O=C(O)c1cccc2c1C(=O)c1cc(Br)ccc1S2(=O)=O", "hERG current change (%, negative = inhibition) at 10uM": 20.2}, {"smiles": "O=C(O)CSc1ccccn1", "hERG current change (%, negative = inhibition) at 10uM": 18}, {"smiles": "COc1ccc(C(=O)NC2CCN(C(=S)Nc3cc(C)cc(C)c3)CC2)cc1", "hERG current change (%, negative = inhibition) at 10uM": 11}, {"smiles": "CC1CCN(CCn2c(=S)[nH]c3ccccc3c2=O)CC1", "hERG current change (%, negative = inhibition) at 10uM": -32.6}, {"smiles": "CCOC(=O)C1CCN(c2ccc(Cl)nn2)CC1", "hERG current change (%, negative = inhibition) at 10uM": 4.48}, {"smiles": "COc1ccc2ccccc2c1CNC(=O)CC1C(=O)NCCN1CC(C)C", "note": "(stereo not drawn)", "hERG current change (%, negative = inhibition) at 10uM": -28.9}, {"smiles": "COc1ccc(Nc2cc(C)nc(N)n2)cc1", "hERG current change (%, negative = inhibition) at 10uM": 7.02}, {"smiles": "COc1ccc(C(=O)O)cc1S(=O)(=O)NCCN(C)C", "hERG current change (%, negative = inhibition) at 10uM": 11.5}, {"smiles": "CC(NC(=O)c1ccco1)C(=O)N1CCN(c2cccc(C(F)(F)F)c2)CC1", "note": "(stereo not drawn)", "hERG current change (%, negative = inhibition) at 10uM": -20.4}, {"smiles": "Cc1ccc(C)n1-c1nnc(N2CCC(C(=O)NCCCN3CC(C)CC(C)C3)CC2)s1", "note": "(stereo not drawn)", "hERG current change (%, negative = inhibition) at 10uM": -17.7}, {"smiles": "CN(Cc1cn(-c2ccccc2)nc1-c1ccc(Cl)cc1)C(=O)CCC(=O)O", "hERG current change (%, negative = inhibition) at 10uM": 0.835}, {"smiles": "CCCCN(CCCC)CCCNC(=O)CN1C(=O)COc2ccc(S(=O)(=O)N3CCC(C)CC3)cc21", "hERG current change (%, negative = inhibition) at 10uM": -74.8}, {"smiles": "O=c1c(O)c(-c2ccc3c(c2)OCO3)oc2ccccc12", "hERG current change (%, negative = inhibition) at 10uM": -5.41}, {"smiles": "C=CCNC(=O)c1cc(-c2ccc(Br)cc2)on1", "hERG current change (%, negative = inhibition) at 10uM": 1.88}, {"smiles": "COc1ccc(NC2CCCN(C(=O)c3cccc(C)n3)C2)cc1OC", "note": "(stereo not drawn)", "hERG current change (%, negative = inhibition) at 10uM": 18.5}, {"smiles": "Cc1cc(C)c(NC(=O)COC(=O)C2CCN(c3ccc(C(F)(F)F)cn3)CC2)c(Cl)c1", "hERG current change (%, negative = inhibition) at 10uM": -6.28}, {"smiles": "Cc1ccccc1N1C(=O)c2cccc3c(N(C)CCO)ccc(c23)C1=O", "hERG current change (%, negative = inhibition) at 10uM": -37.6}, {"smiles": "O=C(CNS(=O)(=O)c1ccc(F)cc1)N1CCOCC1", "hERG current change (%, negative = inhibition) at 10uM": 4.41}, {"smiles": "CCCN1C(=O)/C(=C/c2ccc(OCc3ccc(C(=O)O)cc3)c(OC)c2)NC1=S", "hERG current change (%, negative = inhibition) at 10uM": 18}, {"smiles": "COc1ccc(O)c(-c2cc(-c3cccs3)[nH]n2)c1", "hERG current change (%, negative = inhibition) at 10uM": 0.169}, {"smiles": "CCN(CC)CCCN(Cc1cc2cc3c(cc2[nH]c1=O)OCO3)C(=S)Nc1ccc(OC)cc1", "hERG current change (%, negative = inhibition) at 10uM": -46.8}, {"smiles": "O=C(CSc1nnc(NC(=O)C2CCC2)s1)NC1CC1", "hERG current change (%, negative = inhibition) at 10uM": 13.2}, {"smiles": "Cc1c(C(=O)NCCN2CCOCC2)sc2nc(-c3ccc(F)cc3)cn12", "hERG current change (%, negative = inhibition) at 10uM": -23.6}, {"smiles": "Cc1ccc(NC(=O)CCNC(=O)c2ccccc2Cl)nc1", "hERG current change (%, negative = inhibition) at 10uM": 6.84}, {"smiles": "COc1ccc(C(=O)Nc2ccnn2C2CCN(Cc3ccn[nH]3)CC2)cc1", "hERG current change (%, negative = inhibition) at 10uM": 3.21}, {"smiles": "CCOC(=O)C1CCN(C(=O)CN2C(=O)C(CC)Oc3ccccc32)CC1", "note": "(stereo not drawn)", "hERG current change (%, negative = inhibition) at 10uM": -6.71}, {"smiles": "C(=C\\c1ccccn1)/c1ccccn1", "hERG current change (%, negative = inhibition) at 10uM": 24.4}, {"smiles": "CCSc1ccc(-c2nn(-c3ccccc3)cc2/C=C(/C#N)C(=O)NC)cc1", "hERG current change (%, negative = inhibition) at 10uM": 12.5}, {"smiles": "CCN(CC)c1ccc(N2C(=O)c3ccccc3C2=O)cc1", "hERG current change (%, negative = inhibition) at 10uM": 1.72}, {"smiles": "COC(=O)CN1C(=O)[C@H]2[C@@H](/C=C/c3ccccc3)N3C(=O)CN(Cc4ccccc4)C(=O)[C@@]3(C)[C@H]2C1=O", "hERG current change (%, negative = inhibition) at 10uM": -18.9}, {"smiles": "CCn1c(N)c(C(=O)NCCCOC)sc1=S", "hERG current change (%, negative = inhibition) at 10uM": 27}, {"smiles": "Cc1ccc(Cl)cc1N1CCN(Cc2cc3c(cc2O)CCC3)CC1", "hERG current change (%, negative = inhibition) at 10uM": 4.92}, {"smiles": "O=C1CC(c2ccsc2)c2ccc3ccccc3c2N1", "note": "(stereo not drawn)", "hERG current change (%, negative = inhibition) at 10uM": 9.86}, {"smiles": "COc1ccc(OC)c(NC(=O)CN(C)S(=O)(=O)c2ccc3nc(C)sc3c2)c1", "hERG current change (%, negative = inhibition) at 10uM": -16}, {"smiles": "Cc1ccc(C(=O)NCC(=O)Nc2ccc3c(c2)OCCO3)cc1", "hERG current change (%, negative = inhibition) at 10uM": 16.2}, {"smiles": "COc1ccc(CNC(=O)[C@H](Cc2ccccc2)NC(=O)C2CCNCC2)cc1", "hERG current change (%, negative = inhibition) at 10uM": 15.4}, {"smiles": "CCOC(=O)C1CCN(C(=O)COC(=O)c2ccc3c(c2)C(=O)N(c2ccc(OCC)cc2)C3=O)CC1", "hERG current change (%, negative = inhibition) at 10uM": 6.9}, {"smiles": "O=C(c1ccccc1Oc1ccc([N+](=O)[O-])cc1)N1CCOCC1", "hERG current change (%, negative = inhibition) at 10uM": -52}, {"smiles": "CSCC(=O)NC1CCCc2c1cnn2-c1cc(F)cc(F)c1", "note": "(stereo not drawn)", "hERG current change (%, negative = inhibition) at 10uM": -12.6}]}]}
